Results: publication PMC4336329 (PLoS ONE, 2015)
Among all 310,000 compounds or so, about 14,000 (4.5%) showed an effect of 50% or more. Effects have a minus sign here. Some of the results follow.

target: human ether-à-go-go-related gene (hERG) potassium channel (human, UniProt Q12809); assay: primary screen, population patch clamp on CHO cells stably expressing hERG
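Further: peak tail current of the secondary pulse compared with the same well before compound.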

Sequence of human ether-à-go-go-related gene (hERG) potassium channel (Q12809 whole entry, looked up): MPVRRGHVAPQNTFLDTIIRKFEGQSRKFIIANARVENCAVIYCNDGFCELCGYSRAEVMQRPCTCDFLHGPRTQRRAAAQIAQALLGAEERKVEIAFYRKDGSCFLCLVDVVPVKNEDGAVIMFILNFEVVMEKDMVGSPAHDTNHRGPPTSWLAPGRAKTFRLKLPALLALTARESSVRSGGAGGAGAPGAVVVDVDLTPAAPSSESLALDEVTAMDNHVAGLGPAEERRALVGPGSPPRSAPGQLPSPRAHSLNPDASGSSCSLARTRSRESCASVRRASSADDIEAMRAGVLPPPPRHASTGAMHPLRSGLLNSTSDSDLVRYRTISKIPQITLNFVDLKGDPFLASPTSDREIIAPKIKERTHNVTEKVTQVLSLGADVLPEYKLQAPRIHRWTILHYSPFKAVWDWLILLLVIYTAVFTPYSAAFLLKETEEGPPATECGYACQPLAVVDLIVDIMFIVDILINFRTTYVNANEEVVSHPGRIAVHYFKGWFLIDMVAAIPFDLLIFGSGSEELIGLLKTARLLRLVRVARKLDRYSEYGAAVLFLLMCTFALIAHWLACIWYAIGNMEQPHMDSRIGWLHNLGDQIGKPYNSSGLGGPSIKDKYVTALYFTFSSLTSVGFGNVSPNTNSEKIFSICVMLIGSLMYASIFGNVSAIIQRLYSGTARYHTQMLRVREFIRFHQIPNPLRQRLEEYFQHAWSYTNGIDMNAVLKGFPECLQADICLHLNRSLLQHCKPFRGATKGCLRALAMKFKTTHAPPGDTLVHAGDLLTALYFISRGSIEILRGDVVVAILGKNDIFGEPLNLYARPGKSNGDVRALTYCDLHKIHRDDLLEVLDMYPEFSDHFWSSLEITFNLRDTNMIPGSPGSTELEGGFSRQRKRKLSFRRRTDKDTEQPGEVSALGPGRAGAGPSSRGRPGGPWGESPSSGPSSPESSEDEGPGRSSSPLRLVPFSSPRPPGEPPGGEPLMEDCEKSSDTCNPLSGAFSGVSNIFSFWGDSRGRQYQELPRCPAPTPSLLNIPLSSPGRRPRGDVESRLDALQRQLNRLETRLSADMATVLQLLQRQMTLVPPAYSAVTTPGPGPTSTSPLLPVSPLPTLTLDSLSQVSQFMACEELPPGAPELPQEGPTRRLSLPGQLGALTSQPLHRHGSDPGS

SMILES | hERG current change (%, negative = inhibition) at 10uM [%]
S=C(NC1CCCC1)NN1CCOCC1 | 11.9
Cc1cc(OCCCC(=O)NCc2cccs2)ccc1Cl | 12.6
CCCCN(C(=O)Cn1nnc2ccccc21)C(C(=O)NCCOC)c1ccccc1 (stereo not shown) | 8.49
CC(C)(C)CC(=O)NC(=S)NCCc1ccccc1 | -11.2
CC1CN(S(=O)(=O)c2ccc(C(=O)Nc3ccc(S(=O)(=O)Nc4nccs4)cc3)cc2)CC(C)O1 (stereo not shown) | 10.4
CCOC(=O)c1ccc(CSc2nnc(-c3ccncc3)n2N)cc1 | -4.81
O=C(O)C(=O)O.OC(CON=C1c2ccccc2-c2ccccc21)CN1CCNCC1 (stereo not shown) | -25.4
Cc1cc(C)n2[nH]c(=O)c(N=Nc3cccc(Cl)c3)c2n1 | -22
C/C(=N/OC(=O)c1ccc(Br)cc1)c1ccc(C)cc1 | 19
CCOc1ccccc1OCCCCOc1ccccc1F | -8.69
O=S(=O)(ON(c1ccccc1)S(=O)(=O)c1ccccc1)c1ccccc1 | -10.9
Cc1ccccc1N=Nc1ccc(O)c2ncccc12 | 18.9
Cc1cc(C)c(NC(=S)NC(CO)(CO)CO)c(C)c1 | 12.2
CC(Sc1nccn1C)C(=O)Nc1ccc(C(N)=O)cc1 (stereo not shown) | 12
COCc1cc(=O)[nH]c(N2CCN(c3ccccc3OC)CC2)n1 | -3.39
O=C(CSc1nc2c(c(=O)[nH]1)CCC2)Nc1cccc(F)c1 | -1.68
O=C(NCC1CC1)c1onc(CSc2ccncc2)c1C(=O)NCC1CC1 | -11.9
O=C(CSc1nc(O)cc(=O)[nH]1)C1CC1 | 7.82
CC(C)(C)c1nnc2sc(SCC(=O)NCc3ccco3)nn2c1=O | -17
COc1ccccc1NC(=O)c1ccccc1C(=O)Nc1ccccc1OC | -21.6

SMILES | hERG current change (%, negative = inhibition) at 10uM [%]
O=C(COC(=O)COc1ccccc1Cc1ccccc1)Nc1cccnc1Cl | 4.68
Cc1nnc(SCC(=O)NNC(=O)c2ccccc2)n1N | 10.7
COc1ccc([C@H]2CC(=O)C=C(c3ccc4ccn(C)c4c3)C2)cc1 | 12.9
Cc1cc(C)c2nc(SCCc3ccccc3)nc(C)c2c1 | -10.6
CCOc1ccccc1NC(=O)N1CCC(NC(=O)c2cccc(C)c2)CC1 | -26.4
CC1CCCN(c2nc3c(c(=O)[nH]c(=O)n3C)n2CCSc2nc3ccccc3o2)C1 (stereo not shown) | -12.6
Cc1ccc([N+](=O)[O-])cc1NC(=O)C(C)N1CCCCC1 (stereo not shown) | 30.2
COc1ccc(NC(=O)CN2C3CCC2CC(O)(c2cccnc2)C3)cc1OC (stereo not shown) | 0.385
CCOC(=O)N1CCN(C(=O)C2CC(c3ccc(F)cc3)=NO2)CC1 (stereo not shown) | -20.6
CCN(c1ccccc1)S(=O)(=O)c1ccc(C(=O)Nc2ncccc2O)cc1 | 3.02
Cc1cccc(OCc2nnc(N)s2)c1C | 14.6
Cc1cc(NC(=O)CCS(=O)(=O)c2nc(-c3ccccc3)cc(C(F)(F)F)n2)no1 | 0.488
CCC(=O)c1cn(CC(=O)NCC2CCCO2)c2ccccc12 (stereo not shown) | 8.11
CC(C)c1ccc(NC(=O)CSc2nc(-c3ccccc3F)nc3nc[nH]c23)cc1 | -3.4
COc1cc2ccccc2cc1C(=O)Nc1ccc(CN2CCOCC2)cc1 | -1.54
Cc1cc(=O)oc2cc(OCC(=O)N3CCCC(C)C3)ccc12 (stereo not shown) | -20.4
CCN(CC)S(=O)(=O)c1ccc(Cl)c(C(=O)Oc2cccc(-c3cnc4ccccc4n3)c2)c1 | 20.3
Cc1cc2c3c(c1)C1(C(=O)N3C(C)(C)CC2C)C(C#N)=C(N)Oc2n[nH]c(C)c21 (stereo not shown) | 6.31
CCC(C)C1N=C(c2ccccc2)c2cc(Cl)ccc2N(CC(=O)NCc2ccco2)C1=O (stereo not shown) | 8.71
O=C(Nc1ccc(N2CCCCC2)cc1)C1CCCN1S(=O)(=O)c1ccc(F)cc1 (stereo not shown) | 8.1

SMILES | hERG current change (%, negative = inhibition) at 10uM [%]
Cc1cccc(N/C(N)=N/c2nc(C(F)(F)F)cc(=O)[nH]2)c1C | 9.5
CCOC(=O)N1CCN(C2CC(=O)N(c3ccc(C)cc3)C2=O)CC1 (stereo not shown) | 1.62
CSCC(C)N1CCC(n2nccc2NC(=O)c2ccc3c(c2)OCO3)CC1 (stereo not shown) | -2.95
O=C(c1ccco1)N1CCN(Cc2csc(-c3ccccc3Cl)n2)CC1 | -64.9
N#CCC(=O)Nc1ccc(C(=O)OCC(=O)Nc2ccc3ccccc3c2)cc1 | 5.71
O=C(NC1CCN(C(=O)NCc2ccccc2)CC1)c1ccccc1 | 13.3
Nc1ccc2c(c1)C(=O)C(=O)c1ccccc1-2 | -3.14
O=C(CN(Cc1ccccc1Cl)C(=O)c1ccc(CN2CCOCC2)o1)NCC1CCCO1 (stereo not shown) | 14.2
Cc1ccc2nc(Nc3ccccc3)c(C=O)c(=O)n2c1 | 4.99
c1ccc(N2CCN(c3ccccc3)C2c2cccnc2)cc1 | 1.84
CCC(=O)c1ccc(N2CCOCC2)c(F)c1 | 3.96
CC(C)NC(=O)CSCc1c(F)cccc1Cl | 13
Cc1ccc(NC(=O)CSc2nnc(C(F)(F)F)n2C)cc1[N+](=O)[O-] | -73.6
Cc1cccc(Nc2ncccc2C(=O)O)c1C | 14.8
COc1ccc(N2C(=O)NC(NS(=O)(=O)c3ccccc3)(C(F)(F)F)C2=O)cc1 (stereo not shown) | 2
O=C(/C=C/NCc1cccnc1)c1ccc(Br)cc1 | -40.7
CC(C)N(Cc1nc(-c2ccccc2)no1)C(=O)C(C)(C)C | -9.09
COCCN=C1NN=C(c2ccc(C)c([N+](=O)[O-])c2)CS1 | 11.7
